# The supplement of paper PMC8728848
# This is one part of the list.
# Assays:
# Test in all cases: glycan array binding signal (z-score within array); higher = stronger binding
# Details in all cases: glycan notation: IUPAC condensed, linker removed
# [1] = molecular target: Man(a1-2)Man(a1-3)[Man(a1-2)Man(a1-6)]Man
# Procedure, shortened: (§1)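 The Consortium for Functional Glycomics database supplied 3228 glycan arrays, of which those lacking an available protein sequence were dropped. The binding signal, a within-array Z-score, was averaged across arrays of the same protein sequence and across linkers. Negative scores can be read as non-binding.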
# [2] = molecular target: Man(a1-2)Man(a1-3)[Man(a1-2)Man(a1-6)]Man(a1-6)[Man(a1-2)Man(a1-2)Man(a1-3)]Man
# Procedure, shortened: as §1
# [3] = molecular target: Man(a1-2)Man(a1-3)[Man(a1-2)Man(a1-6)]Man(a1-6)[Man(a1-2)Man(a1-2)Man(a1-3)]Man(b1-4)GlcNAc(b1-4)GlcNAc
# Procedure, shortened: as §1
# [4] = molecular target: Man(a1-2)Man(a1-3)[Man(a1-6)]Man(a1-6)[Man(a1-2)Man(a1-3)]Man(b1-4)GlcNAc(b1-4)GlcNAc
# Procedure, shortened: as §1
# [5] = molecular target: Man(a1-2)Man(a1-6)[Man(a1-3)]Man(a1-6)[Man(a1-2)Man(a1-2)Man(a1-3)]Man
# Procedure, shortened: as §1
# [6] = molecular target: Man(a1-2)Man(a1-6)[Man(a1-3)]Man(a1-6)[Man(a1-2)Man(a1-2)Man(a1-3)]Man(b1-4)GlcNAc(b1-4)GlcNAc
# Procedure, shortened: as §1
# [7] = molecular target: Man(a1-3)[Man(a1-6)]Man
# Procedure, shortened: as §1
# [8] = molecular target: Man(a1-3)[Man(a1-6)]Man(a1-6)[Man(a1-2)Man(a1-3)]Man(b1-4)GlcNAc(b1-4)GlcNAc
# Procedure, shortened: as §1
# [9] = molecular target: Man(a1-3)[Man(a1-6)]Man(a1-6)[Man(a1-3)]Man
# Procedure, shortened: as §1
# [10] = molecular target: Man(a1-3)[Man(a1-6)]Man(a1-6)[Man(a1-3)]Man(b1-4)GlcNAc(b1-4)GlcNAc
# Procedure, shortened: as §1
# [11] = molecular target: Man(a1-3)[Man(a1-6)]Man(b1-4)GlcNAc(b1-4)GlcNAc
# Procedure, shortened: as §1
# [12] = molecular target: Man(a1-3)[Man(a1-6)]Man(b1-4)GlcNAc(b1-4)[Fuc(a1-6)]GlcNAc
# Procedure, shortened: as §1
# [13] = molecular target: Man(a1-6)Man
# Procedure, shortened: as §1
# [14] = molecular target: Man(b1-4)GlcNAc
# Procedure, shortened: as §1
# [15] = molecular target: Neu5Ac(a2-3)Gal
# Procedure, shortened: as §1
# [16] = molecular target: Neu5Ac(a2-3)Gal(b1-3)GalNAc
# Procedure, shortened: as §1
# [17] = molecular target: Neu5Ac(a2-3)Gal(b1-3)GalNAc(b1-3)Gal(a1-4)Gal(b1-4)Glc
# Procedure, shortened: as §1
# [18] = molecular target: Neu5Ac(a2-3)Gal(b1-3)GalNAc(b1-4)[Neu5Ac(a2-3)]Gal(b1-4)Glc
# Procedure, shortened: as §1
# [19] = molecular target: Neu5Ac(a2-3)Gal(b1-3)GalNAc(b1-4)[Neu5Ac(a2-8)Neu5Ac(a2-3)]Gal(b1-4)Glc
# Procedure, shortened: as §1
# [20] = molecular target: Neu5Ac(a2-3)Gal(b1-3)GalNAc6S
# Procedure, shortened: as §1
# [21] = molecular target: Neu5Ac(a2-3)Gal(b1-3)GlcNAc
# Procedure, shortened: as §1
# [22] = molecular target: Neu5Ac(a2-3)Gal(b1-3)GlcNAc(b1-2)Man(a1-3)[GlcNAc(b1-4)][Neu5Ac(a2-3)Gal(b1-3)GlcNAc(b1-2)Man(a1-6)]Man(b1-4)GlcNAc(b1-4)GlcNAc
# Procedure, shortened: as §1
# [23] = molecular target: Neu5Ac(a2-3)Gal(b1-3)GlcNAc(b1-2)Man(a1-3)[Neu5Ac(a2-3)Gal(b1-3)GlcNAc(b1-2)Man(a1-6)]Man(b1-4)GlcNAc(b1-4)GlcNAc
# Procedure, shortened: as §1
# [24] = molecular target: Neu5Ac(a2-3)Gal(b1-3)GlcNAc(b1-3)Gal(b1-3)GlcNAc
# Procedure, shortened: as §1
# [25] = molecular target: Neu5Ac(a2-3)Gal(b1-3)GlcNAc(b1-3)Gal(b1-4)GlcNAc
# Procedure, shortened: as §1
# [26] = molecular target: Neu5Ac(a2-3)Gal(b1-3)GlcNAc(b1-3)GalNAc
# Procedure, shortened: as §1
# [27] = molecular target: Neu5Ac(a2-3)Gal(b1-3)GlcNAc(b1-6)GalNAc
# Procedure, shortened: as §1
# [28] = molecular target: Neu5Ac(a2-3)Gal(b1-3)GlcNAc6S
# Procedure, shortened: as §1
# [29] = molecular target: Neu5Ac(a2-3)Gal(b1-3)[Fuc(a1-4)]GlcNAc
# Procedure, shortened: as §1
binder,measurement,setting,value
"Gal 4 (Homo sapiens), Q8K419 (protein) MAYVPAPGYQPTYNPTLPYKRPIPGGLSVGMSVYIQGMAKENMRRFHVNFAVGQDDGADVAFHFNPRFDGWDKVVFNTMQSGQWGKEEKKKSMPFQKGKHFELVFMVMPEHYKVVVNGNSFYEYGHRLPVQMVTHLQVDGDLELQSINFLGGQPAAAPYPGAMTIPAYPAGSPGYNPPQMNTLPVMTGPPVFNPRVPYVGALQGGLTVRRTIIIKGYVLPTARNFVINFKVGSSGDIALHLNPRIGDSVVRNSFMNGSWGAEERKVAYNPFGPGQFFDLSIRCGMDRFKVFANGQHLFDFSHRFQAFQMVDTLEINGDITLSYVQI",glycan array binding signal (z-score),[1],-0.202
same,glycan array binding signal (z-score),[2],-0.204
same,glycan array binding signal (z-score),[3],-0.178
same,glycan array binding signal (z-score),[4],-0.208
same,glycan array binding signal (z-score),[5],-0.201
same,glycan array binding signal (z-score),[6],-0.206
same,glycan array binding signal (z-score),[7],-0.202
same,glycan array binding signal (z-score),[8],-0.08
same,glycan array binding signal (z-score),[9],-0.203
same,glycan array binding signal (z-score),[10],-0.202
same,glycan array binding signal (z-score),[11],-0.2
same,glycan array binding signal (z-score),[12],-0.21
same,glycan array binding signal (z-score),[13],-0.192
same,glycan array binding signal (z-score),[14],-0.203
same,glycan array binding signal (z-score),[15],-0.196
same,glycan array binding signal (z-score),[16],-0.188
same,glycan array binding signal (z-score),[17],-0.103
same,glycan array binding signal (z-score),[18],-0.183
same,glycan array binding signal (z-score),[19],-0.201
same,glycan array binding signal (z-score),[20],-0.1
same,glycan array binding signal (z-score),[21],-0.187
same,glycan array binding signal (z-score),[22],-0.554
same,glycan array binding signal (z-score),[23],-0.216
same,glycan array binding signal (z-score),[24],0.182
same,glycan array binding signal (z-score),[25],-0.125
same,glycan array binding signal (z-score),[26],-0.206
same,glycan array binding signal (z-score),[27],-0.208
same,glycan array binding signal (z-score),[28],-0.169
same,glycan array binding signal (z-score),[29],-0.205
